We go through seven molecules from paper PMC5323044.

Chains of the proteins cited; added tags and fusions are not shown. Residues count along the entry.
UniProt Q01097, residues 27-1482: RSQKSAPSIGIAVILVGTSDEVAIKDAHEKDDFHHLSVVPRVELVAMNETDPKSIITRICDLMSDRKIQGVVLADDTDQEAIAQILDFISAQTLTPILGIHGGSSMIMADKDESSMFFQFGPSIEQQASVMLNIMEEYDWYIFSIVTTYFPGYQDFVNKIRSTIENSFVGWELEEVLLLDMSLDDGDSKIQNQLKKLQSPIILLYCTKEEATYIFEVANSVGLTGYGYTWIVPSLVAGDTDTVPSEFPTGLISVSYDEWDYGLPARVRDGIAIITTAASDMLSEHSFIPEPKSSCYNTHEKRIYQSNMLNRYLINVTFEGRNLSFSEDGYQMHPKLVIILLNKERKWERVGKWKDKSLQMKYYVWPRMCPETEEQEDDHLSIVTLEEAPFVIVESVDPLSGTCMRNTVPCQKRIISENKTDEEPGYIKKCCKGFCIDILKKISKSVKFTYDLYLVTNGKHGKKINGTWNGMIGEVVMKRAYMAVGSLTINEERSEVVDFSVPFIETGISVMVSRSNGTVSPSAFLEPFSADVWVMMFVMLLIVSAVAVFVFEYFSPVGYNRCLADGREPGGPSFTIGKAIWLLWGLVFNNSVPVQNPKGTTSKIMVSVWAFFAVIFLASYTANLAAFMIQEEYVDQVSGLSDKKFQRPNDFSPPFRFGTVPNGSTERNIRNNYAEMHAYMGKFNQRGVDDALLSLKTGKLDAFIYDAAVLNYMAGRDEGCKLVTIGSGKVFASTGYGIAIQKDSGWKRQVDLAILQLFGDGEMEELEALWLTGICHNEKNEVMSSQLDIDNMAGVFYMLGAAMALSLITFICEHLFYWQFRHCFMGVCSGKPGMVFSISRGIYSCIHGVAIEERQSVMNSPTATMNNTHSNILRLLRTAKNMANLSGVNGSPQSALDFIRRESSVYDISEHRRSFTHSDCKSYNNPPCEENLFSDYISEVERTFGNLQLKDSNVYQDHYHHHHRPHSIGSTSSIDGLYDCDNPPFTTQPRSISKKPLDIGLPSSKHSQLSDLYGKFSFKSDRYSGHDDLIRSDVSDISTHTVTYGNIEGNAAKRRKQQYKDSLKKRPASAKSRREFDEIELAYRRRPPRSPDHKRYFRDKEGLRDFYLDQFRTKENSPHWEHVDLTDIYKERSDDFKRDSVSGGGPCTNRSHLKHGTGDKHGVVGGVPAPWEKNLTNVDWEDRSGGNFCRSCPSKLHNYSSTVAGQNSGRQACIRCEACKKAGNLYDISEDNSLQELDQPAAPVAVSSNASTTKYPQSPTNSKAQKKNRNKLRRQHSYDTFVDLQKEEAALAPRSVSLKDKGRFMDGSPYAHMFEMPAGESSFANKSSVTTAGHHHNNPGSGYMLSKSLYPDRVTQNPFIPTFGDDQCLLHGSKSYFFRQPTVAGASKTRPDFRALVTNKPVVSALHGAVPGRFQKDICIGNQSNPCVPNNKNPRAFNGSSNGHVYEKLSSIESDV
UniProt O08788: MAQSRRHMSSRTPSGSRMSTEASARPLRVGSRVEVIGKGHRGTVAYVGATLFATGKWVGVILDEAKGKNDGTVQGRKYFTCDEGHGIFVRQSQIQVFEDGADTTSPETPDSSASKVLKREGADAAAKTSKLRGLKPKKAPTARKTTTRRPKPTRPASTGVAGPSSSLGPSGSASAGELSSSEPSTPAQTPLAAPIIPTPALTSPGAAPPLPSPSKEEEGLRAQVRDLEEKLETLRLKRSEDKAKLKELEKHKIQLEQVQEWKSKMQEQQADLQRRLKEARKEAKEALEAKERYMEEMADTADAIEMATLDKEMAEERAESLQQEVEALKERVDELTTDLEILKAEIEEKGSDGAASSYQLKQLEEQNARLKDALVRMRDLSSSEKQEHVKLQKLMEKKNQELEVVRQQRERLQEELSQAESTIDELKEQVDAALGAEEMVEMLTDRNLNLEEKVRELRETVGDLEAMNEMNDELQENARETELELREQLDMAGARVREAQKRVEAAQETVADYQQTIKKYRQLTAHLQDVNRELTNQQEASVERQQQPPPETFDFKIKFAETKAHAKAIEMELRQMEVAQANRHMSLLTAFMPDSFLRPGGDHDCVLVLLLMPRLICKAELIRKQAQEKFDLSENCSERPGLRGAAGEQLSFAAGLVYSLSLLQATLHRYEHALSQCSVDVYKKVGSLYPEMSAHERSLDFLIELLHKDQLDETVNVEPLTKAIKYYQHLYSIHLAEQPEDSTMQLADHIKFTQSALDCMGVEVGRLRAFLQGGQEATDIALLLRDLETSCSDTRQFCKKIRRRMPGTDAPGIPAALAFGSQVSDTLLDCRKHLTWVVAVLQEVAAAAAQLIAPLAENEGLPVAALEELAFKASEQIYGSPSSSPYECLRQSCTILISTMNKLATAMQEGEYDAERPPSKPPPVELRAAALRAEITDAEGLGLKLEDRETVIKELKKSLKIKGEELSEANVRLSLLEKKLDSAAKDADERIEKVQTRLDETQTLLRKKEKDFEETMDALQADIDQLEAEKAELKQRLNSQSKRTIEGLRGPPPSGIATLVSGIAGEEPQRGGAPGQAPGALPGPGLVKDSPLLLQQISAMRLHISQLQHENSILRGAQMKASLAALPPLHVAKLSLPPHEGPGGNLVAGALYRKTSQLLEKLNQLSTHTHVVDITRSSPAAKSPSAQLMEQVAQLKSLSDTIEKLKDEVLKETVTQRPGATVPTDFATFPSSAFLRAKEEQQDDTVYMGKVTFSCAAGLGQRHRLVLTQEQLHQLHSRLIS

For test [1], the target named is T1, SNX6 (endogenous, mouse brain) (mouse (endogenous in brain)) (UniProt Q6P8X1).
T1 sequence: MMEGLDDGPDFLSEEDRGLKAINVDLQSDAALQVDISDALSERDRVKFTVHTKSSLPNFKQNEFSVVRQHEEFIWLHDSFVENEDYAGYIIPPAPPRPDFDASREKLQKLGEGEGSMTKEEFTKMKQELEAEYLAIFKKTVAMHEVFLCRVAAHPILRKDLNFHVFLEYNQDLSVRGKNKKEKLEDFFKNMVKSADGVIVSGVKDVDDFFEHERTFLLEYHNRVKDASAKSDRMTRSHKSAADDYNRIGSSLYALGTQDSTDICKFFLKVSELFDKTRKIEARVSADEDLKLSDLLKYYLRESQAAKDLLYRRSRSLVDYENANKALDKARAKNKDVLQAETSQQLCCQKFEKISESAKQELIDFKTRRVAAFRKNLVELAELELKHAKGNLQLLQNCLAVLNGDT
The test can be described thus: immunoisolation of vesicles (membrane IP); membrane fraction (p100) of mouse brain lysate, buffer without detergent (0.25 M sucrose, 150 mM NaCl); mouse anti-SNX6 antibody coupled to Dynabeads Protein G; immunoblotting. A general note: Immunoblotting shows a protein as a band on a membrane.

A further test concerns the target T2, GST-SNX6-N (aa 1-181) (UniProt Q9UNH7).
T2 sequence: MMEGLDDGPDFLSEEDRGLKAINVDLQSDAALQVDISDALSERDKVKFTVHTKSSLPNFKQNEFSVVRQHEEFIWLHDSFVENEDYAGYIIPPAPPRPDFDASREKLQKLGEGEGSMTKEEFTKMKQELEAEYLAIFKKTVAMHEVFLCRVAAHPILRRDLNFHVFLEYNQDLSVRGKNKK
In words: pull-down; in vitro binding assay: 2 μg of recombinant His-sumo-Homer protein incubated with GST, GST-SNX1-N or GST-SNX6-N immobilized on glutathione-Sepharose beads overnight at 4°C; immunoblotting; both purified.

The target of test [2] is T3, Flag-tagged SNX6 (full length) (UniProt Q9UNH7).
T3 sequence: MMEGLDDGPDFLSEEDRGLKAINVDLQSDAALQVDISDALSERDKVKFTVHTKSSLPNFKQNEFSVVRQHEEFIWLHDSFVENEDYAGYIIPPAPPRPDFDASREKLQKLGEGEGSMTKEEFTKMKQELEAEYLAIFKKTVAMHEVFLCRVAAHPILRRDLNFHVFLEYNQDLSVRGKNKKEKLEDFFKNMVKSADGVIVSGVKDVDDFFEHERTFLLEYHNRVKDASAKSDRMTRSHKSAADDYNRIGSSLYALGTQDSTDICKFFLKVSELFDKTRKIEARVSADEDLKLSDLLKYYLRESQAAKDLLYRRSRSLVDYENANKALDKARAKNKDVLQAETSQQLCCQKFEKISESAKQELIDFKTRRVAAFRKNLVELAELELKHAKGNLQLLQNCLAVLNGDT
In words: co-IP; lysates of HEK293T cells overexpressing Flag-SNX6 and mEmerald-Homer1c (0.5% NP-40, 150 mM NaCl); IP with Flag M2 beads, blots with antibodies to Flag and Homer1b/c.

Results are given in words; binding and its absence hold for the method and conditions named. For some of these results: Binding seen in cells or lysates may run through a third protein. Some binding calls cover weakened binding; strength is not graded here. For some of these results: Tags and fused reporters may be left off the sequences shown.

With “GluN2B subunit of NMDAR (endogenous, mouse brain) (from UniProt Q01097 27-1482) (receptor)”, the binding entry in test [1] is on record as “no binding”.

On to “p150^Glued (endogenous, mouse brain) (from UniProt O08788 1-1281)”, for which, in test [1], the binding entry is listed as “binds”.

For the molecule “GluN2A subunit of NMDAR (endogenous, mouse brain) (from UniProt P35436 23-1464) (receptor)”, the binding result in test [1] is “no binding”.

B1: His-sumo-Homer1c-FL (protein, UniProt Q9Z2Y3 1-366)
chain: MGEQPIFSTRAHVFQIDPNTKKNWVPTSKHAVTVSYFYDSTRNVYRIISLDGSKAIINSTITPNMTFTKTSQKFGQWADSRANTVYGLGFSSEHHLSKFAEKFQEFKEAARLAKEKSQEKMELTSTPSQESAGGDLQSPLTPESINGTDDERTPDVTQNSEPRAEPTQNALPFPHSAGDRTQALSHASSAISKHWEAELATLKGNNAKLTAALLESTANVKQWKQQLAAYQEEAERLHKRVTELECVSSQANAVHSHKTELNQTVQELEETLKVKEEEIERLKQEIDNARELQEQRDSLTQKLQEVEIRNKDLEGQLSDLEQRLEKSQNEQEAFRSNLKTLLEILDGKIFELTELRDNLAKLLECS
Consider B1, for which, in the test with GST-SNX6-N (aa 1-181), the binding result is “binds”.

B2: mEmerald-Homer1c (protein, UniProt Q9Z2Y3 1-366)
chain: MGEQPIFSTRAHVFQIDPNTKKNWVPTSKHAVTVSYFYDSTRNVYRIISLDGSKAIINSTITPNMTFTKTSQKFGQWADSRANTVYGLGFSSEHHLSKFAEKFQEFKEAARLAKEKSQEKMELTSTPSQESAGGDLQSPLTPESINGTDDERTPDVTQNSEPRAEPTQNALPFPHSAGDRTQALSHASSAISKHWEAELATLKGNNAKLTAALLESTANVKQWKQQLAAYQEEAERLHKRVTELECVSSQANAVHSHKTELNQTVQELEETLKVKEEEIERLKQEIDNARELQEQRDSLTQKLQEVEIRNKDLEGQLSDLEQRLEKSQNEQEAFRSNLKTLLEILDGKIFELTELRDNLAKLLECS
On to B2, for which, in test [2], the binding result is “binds”.

B3: His-sumo-Homer3 (protein, UniProt Q99JP6-2 1-359)
chain: MSTAREQPIFSTRAHVFQIDPTTKRNWIPAGKHALTVSYFYDATRNVYRIISIGGAKAIINSTVTPNMTFTKTSQKFGQWADSRANTVYGLGFASEQQLTQFAEKFQEVKEAARLAREKSQDGGEFTSTGLALASHQVPPSPLVSTNGPGEEKLFRSQSADTPGPTERERLKKMLSEGSVGEVQWEAEFFALQDSNQRLAGALREANAAATQWRQQLEVQRAEAELLRQRVAELEAQVAVEPVRAGEKEATSQSVEQLEARVQTKDQEIQTLKNQSTGTREAPDTAEREETQQQVQDLETRNAELEQQLRSMECNLEEARAERERARAEVGRAAQLLDVRLFELSELREGLARLAEAAP
With B3, the binding result with GST-SNX6-N (aa 1-181) is reported as “no binding (tested: 2 μg of protein)”.

B4: His-sumo-Homer2b (protein, UniProt Q9QWW1 1-354)
chain: MGEQPIFTTRAHVFQIDPSTKKNWVPASKQAVTVSYFYDVTRNSYRIISVDGAKVIINSTITPNMTFTKTSQKFGQWADSRANTVFGLGFSSELQLTKFAEKFQEVREAARLARDKSQEKTETSSNHSQESGCETPSSTQASSVNGTDDEKASHASPADTHLKSENDKLKIALTQSAANVKKWEMELQTLRESNARLTTALQESAASVEQWKRQFSICRDENDRLRSKIEELEEQCSEINREKEKNTQLKRRIEELESEVRDKEMELKDLRKQSEIIPQLMSECEYVSEKLEAAERDNQNLEDKVRSLKTDIEESKYRQRHLKGELKSFLEVLDGKIDDLHDFRRGLSKLGTDN
In the case of B4, the binding result in the test with GST-SNX6-N (aa 1-181) is given as “no binding (tested: 2 μg of protein)”.
